Laboratory results as given in PubChem BioAssay AID1963423 (Molecular Pharmacology Branch, DTP, NCI, 2024).
For part of its entries the source gives two or more results. The list is limited to them. There may be further records. Results that share an entry repeat one measurement in other runs, samples, wells, individuals or studies. Marks such as [2022-09] give the month of the run.

Test system: 439559-082-T-J2-PDC complex spheroid growth
Assay: Anticancer human tumor 439559-082-T-J2-PDC patient-derived colon adenocarcinoma cell line growth inhibition [Asc]
Conditions: compound alone 0.00316 µM; stronger effect = lower value
Experimental: Multicellular complex tumor spheroid response to apoptosis pathway targeting inhibitors Alrizomadlin, Pelcitoclax, and Dasminapant in combination with a variety of drugs and investigational agents in selected tumor cell lines
The MDM2 inhibitor alrizomadlin, the Bcl-2/Bcl-xL inhibitor pelcitoclax, and the IAPs inhibitor dasminapant were evaluated both individually and in combination with standard of care and investigational anticancer small molecules within a complex spheroid model of solid tumors. . Complex spheroids include a stromal component modeled by human endothelial cells (HUVEC) and fibroblasts modeled by human mesenchymal stem cells (MSCs). The concentration ranges selected for each drug and investigational agent were based upon clinically achievable concentrations if the clinical Cmax of the agent was known.
Compounds. […] If the clinical Cmax for an agent had not been determined, the highest concentration tested was 10 microM. […]
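Note: spheroids exposed to agents for 7 days starting day 3 after seeding; percent of DMSO vehicle control viability with 100% = vehicle.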

CNC(C)C(=O)NC1CN(S(=O)(=O)c2cccc(S(=O)(=O)N3CCC4CCC(C(=O)NC(c5ccccc5)c5ccccc5)N4C(=O)C(NC(=O)C(C)NC)C3)c2)CCC2CCC(C(=O)NC(c3ccccc3)c3ccccc3)N2C1=O (stereo unspecified)
viability, T/C: 99.4%, 109% [2022-10] and 54.2, 105, 106, 108, 114, 101, 103% [2022-11]
